± gives the standard deviation of the averaged measurements. Over roughly 2,900 compounds, “IRF Lucia reporter activity, fold change vs agonist alone” has its median near 0.9; the highest 2% begin near 2.8. This is one part of the list.
What was measured:
RAW-Dual [1] = experiment: IRF Lucia reporter activity, fold change vs agonist alone; higher = enhanced IRF activity; conditions: agonist: MPLA (TLR4) […]
Outline: (§1)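 RAW-Dual macrophages (50,000 cells/well in DMEM, 384-well plates) received 50 nL of library stock by pin tool, then a PRR agonist 1 h later, and were kept at 37 °C, 5% CO2. After 20 hours, supernatant was read for IRF by QuantiLuc luminescence and for NF-κB by QuantiBlue absorbance at 620 nm. Reporter activity is fold change over agonist-alone wells. Cytotoxic wells had IncuCyte confluency below 70% of agonist controls in both mask sets.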

RAW-Dual [2] = experiment: IRF Lucia reporter activity, fold change vs agonist alone; cytotoxicity flag (confluency mask): not cytotoxic; higher = enhanced IRF activity
Outline: as §1

RAW-Dual [3] = experiment: IRF Lucia reporter activity, fold change vs agonist alone; cytotoxicity flag (confluency mask): cytotoxic (confluency <70% of control); higher = enhanced IRF activity
Outline: as §1

[4] = library stock concentration (final ~1000-fold dilution): 10 mM, cytotoxicity flag (confluency mask): not cytotoxic
[5] = agonist: 3'3'-cGAMP (STING) 10 ug/mL

## CC(C)=CCC/C(C)=C/CC/C(C)=C/CC/C(C)=C/CC/C(C)=C/CC/C(C)=C/CC/C(C)=C/CC/C(C)=C/CC/C(C)=C/CO
RAW-Dual [1]; [4]
  IRF Lucia reporter activity: 1.08

## CC(C)=CCC/C(C)=C/CC/C(C)=C/CC/C(C)=C/CC/C(C)=C/CC/C(C)=C/CC/C(C)=C/CC/C(C)=C/CC/C(C)=C/CO (library stock concentration (final ~1000-fold dilution): 10 mM)
RAW-Dual [2]; [5]
  IRF Lucia reporter activity: 0.98
RAW-Dual [2]; agonist: LPS (TLR4) 0.1 ug/mL
  IRF Lucia reporter activity: 1.21

## COCCOC(=O)C1=C(C)NC(C)=C(C(=O)OC/C=C/c2ccccc2)C1c1cccc([N+](=O)[O-])c1 (centres undefined)
RAW-Dual [1]; [4]
  IRF Lucia reporter activity: 0.819

## COCCOC(=O)C1=C(C)NC(C)=C(C(=O)OC/C=C/c2ccccc2)C1c1cccc([N+](=O)[O-])c1 (centres undefined) (library stock concentration (final ~1000-fold dilution): 10 mM)
RAW-Dual [2]; [5]
  IRF Lucia reporter activity: 0.278
RAW-Dual [2]; agonist: LPS (TLR4) 0.1 ug/mL
  IRF Lucia reporter activity: 1.06

## COc1cc(O)c(C(=O)Nc2nc(C(=O)NCCN(C(C)C)C(C)C)cs2)cc1OC
RAW-Dual [1]; [4]
  IRF Lucia reporter activity: 0.958

## COc1cc(O)c(C(=O)Nc2nc(C(=O)NCCN(C(C)C)C(C)C)cs2)cc1OC (library stock concentration (final ~1000-fold dilution): 10 mM)
RAW-Dual [2]; [5]
  IRF Lucia reporter activity: 1
RAW-Dual [2]; agonist: LPS (TLR4) 0.1 ug/mL
  IRF Lucia reporter activity: 1.22

## Cc1cc(C)cc(C(=O)NOCCCCCC(=O)NO)c1
RAW-Dual [1]; library stock concentration (final ~1000-fold dilution): 10 mM, cytotoxicity flag (confluency mask): cytotoxic (confluency <70% of control)
  IRF Lucia reporter activity: 0.354

## Cc1cc(C)cc(C(=O)NOCCCCCC(=O)NO)c1 (library stock concentration (final ~1000-fold dilution): 10 mM)
RAW-Dual [3]; [5]
  IRF Lucia reporter activity: 0.0291
RAW-Dual [3]; agonist: LPS (TLR4) 0.1 ug/mL
  IRF Lucia reporter activity: 0.394

## CC(NC(=O)c1ccccc1N=Cc1c(O)ccc2ccccc12)c1ccccc1 (centres undefined) (library stock concentration (final ~1000-fold dilution): 10 mM)
RAW-Dual [2]; [5]
  IRF Lucia reporter activity: 0.692
RAW-Dual [2]; agonist: LPS (TLR4) 0.1 ug/mL
  IRF Lucia reporter activity: 1.45

## CC(NC(=O)c1ccccc1N=Cc1c(O)ccc2ccccc12)c1ccccc1 (centres undefined)
RAW-Dual [1]; [4]
  IRF Lucia reporter activity: 1.28

## CC1=CC2(O)OC3(CC2=C(C)C)C(C)CCC13 (centres undefined) (library stock concentration (final ~1000-fold dilution): 10 mM)
RAW-Dual [2]; [5]
  IRF Lucia reporter activity: 1.04 ± 0.089
RAW-Dual [2]; agonist: LPS (TLR4) 0.1 ug/mL
  IRF Lucia reporter activity: 1.1 ± 0.061

## CC1=CC2(O)OC3(CC2=C(C)C)C(C)CCC13 (centres undefined)
RAW-Dual [1]; [4]
  IRF Lucia reporter activity: 1.15 ± 0.02

## CNC(=O)c1cc(COc2nnc(Nc3ccc(Cl)cc3)c3ccoc23)ccn1 (library stock concentration (final ~1000-fold dilution): 10 mM)
RAW-Dual [2]; [5]
  IRF Lucia reporter activity: 0.892
RAW-Dual [2]; agonist: LPS (TLR4) 0.1 ug/mL
  IRF Lucia reporter activity: 0.529

## CNC(=O)c1cc(COc2nnc(Nc3ccc(Cl)cc3)c3ccoc23)ccn1
RAW-Dual [1]; [4]
  IRF Lucia reporter activity: 0.948

## CCC1=C(C)CN(C(=O)NCCc2ccc(S(=O)(=O)NC(=O)NC3CCC(C)CC3)cc2)C1=O (centres undefined)
RAW-Dual [1]; [4]
  IRF Lucia reporter activity: 1.16

## CCC1=C(C)CN(C(=O)NCCc2ccc(S(=O)(=O)NC(=O)NC3CCC(C)CC3)cc2)C1=O (centres undefined) (library stock concentration (final ~1000-fold dilution): 10 mM)
RAW-Dual [2]; [5]
  IRF Lucia reporter activity: 1.11
RAW-Dual [2]; agonist: LPS (TLR4) 0.1 ug/mL
  IRF Lucia reporter activity: 1.09

## CC(NC(=O)CCC(F)(F)F)C(=O)NC1C(=O)N(CCO)c2ncccc2-c2ccccc21 (centres undefined)
RAW-Dual [1]; [4]
  IRF Lucia reporter activity: 1.22

## CC(NC(=O)CCC(F)(F)F)C(=O)NC1C(=O)N(CCO)c2ncccc2-c2ccccc21 (centres undefined) (library stock concentration (final ~1000-fold dilution): 10 mM)
RAW-Dual [2]; [5]
  IRF Lucia reporter activity: 1.1
RAW-Dual [2]; agonist: LPS (TLR4) 0.1 ug/mL
  IRF Lucia reporter activity: 1.02

## O=C(O)/C=C/c1ccc(Cn2ccnc2)cc1
RAW-Dual [1]; [4]
  IRF Lucia reporter activity: 1.05

## O=C(O)/C=C/c1ccc(Cn2ccnc2)cc1 (library stock concentration (final ~1000-fold dilution): 10 mM)
RAW-Dual [2]; [5]
  IRF Lucia reporter activity: 0.988
RAW-Dual [2]; agonist: LPS (TLR4) 0.1 ug/mL
  IRF Lucia reporter activity: 0.998

## COc1cc2nccc(Oc3ccc(NC(=O)C4(C(=O)Nc5ccc(F)cc5)CC4)cc3)c2cc1OC
RAW-Dual [1]; [4]
  IRF Lucia reporter activity: 0.292

## COc1cc2nccc(Oc3ccc(NC(=O)C4(C(=O)Nc5ccc(F)cc5)CC4)cc3)c2cc1OC (library stock concentration (final ~1000-fold dilution): 10 mM)
RAW-Dual [2]; [5]
  IRF Lucia reporter activity: 0.0574
RAW-Dual [2]; agonist: LPS (TLR4) 0.1 ug/mL
  IRF Lucia reporter activity: 0.236

## Cl.Nc1ncccc1-c1nc2ccc(-c3ccccc3)nc2n1-c1ccc(C2(N)CCC2)cc1 (library stock concentration (final ~1000-fold dilution): 10 mM)
RAW-Dual [3]; [5]
  IRF Lucia reporter activity: 0.228
RAW-Dual [3]; agonist: LPS (TLR4) 0.1 ug/mL
  IRF Lucia reporter activity: 1.21

## O=C(O)CCN1C(=O)C(=Cc2ccc(-c3ccc([N+](=O)[O-])cc3)o2)SC1=S (library stock concentration (final ~1000-fold dilution): 10 mM)
RAW-Dual [2]; [5]
  IRF Lucia reporter activity: 0.0623
RAW-Dual [2]; agonist: LPS (TLR4) 0.1 ug/mL
  IRF Lucia reporter activity: 0.665

## CCc1cc2c(cc1N1CCC(N3CCOCC3)CC1)C(C)(C)c1[nH]c3cc(C#N)ccc3c1C2=O.Cl (library stock concentration (final ~1000-fold dilution): 2 mM)
RAW-Dual [2]; [5]
  IRF Lucia reporter activity: 0.387
RAW-Dual [2]; agonist: LPS (TLR4) 0.1 ug/mL
  IRF Lucia reporter activity: 1.73

## CCc1cc2c(cc1N1CCC(N3CCOCC3)CC1)C(C)(C)c1[nH]c3cc(C#N)ccc3c1C2=O.Cl
RAW-Dual [1]; library stock concentration (final ~1000-fold dilution): 2 mM, cytotoxicity flag (confluency mask): not cytotoxic
  IRF Lucia reporter activity: 1.33

## CC(C)(C)c1[nH]cnc1C=c1[nH]c(=O)c(=Cc2ccccc2)[nH]c1=O (library stock concentration (final ~1000-fold dilution): 10 mM)
RAW-Dual [2]; [5]
  IRF Lucia reporter activity: 0.101
RAW-Dual [2]; agonist: LPS (TLR4) 0.1 ug/mL
  IRF Lucia reporter activity: 1.76

## CC(C)(C)c1[nH]cnc1C=c1[nH]c(=O)c(=Cc2ccccc2)[nH]c1=O
RAW-Dual [1]; [4]
  IRF Lucia reporter activity: 1.69

## COC(=O)CNC(=O)C(=O)OC
RAW-Dual [1]; [4]
  IRF Lucia reporter activity: 1.04

From the supplement of paper PMC10037445
